Measured values from the supplement of paper PMC11417369.
± gives the standard deviation of the averaged measurements. The list shows a part of the results.

Tested on: PfAP2-LT AP2 domain (GST-tagged)
Experiment: gcPBM binding intensity (ln(normalized median fluorescence intensity)); higher = stronger DNA binding
Procedure, shortened: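 Alexa488 anti-GST antibody, scanned at 488 nm, detected GST-tagged P. falciparum DNA-binding domains that had been expressed in E. coli and incubated for 1 h on an Agilent 4 × 180k array. The array carried primer-extended double-stranded 36-bp intergenic genomic probes and negative controls. Binding intensity is the highest Masliner-normalised natural-log median intensity across replicate spots of either orientation of each probe.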

Row | Sequence | gcPBM binding intensity (ln)
1 | GATAAAGTACTTTATACACACAAATATTTATTTATA [CACACA_site7795] | 8.93 ± 0.45
2 | TTATGTAAAAAAAAAAAAAAAAAAAAAAAAAAAAAA [CACACA_negctrl_site984] | 8.07 ± 0.23
3 | CATATAATATAATTATGTACATATATAATAATATAC [XGTACX_site5278] | 8.77 ± 0.42
4 | AAAAAAAAAAAAAAACGTACACATATTATGTTATTT [XGTACX_site5264] | 8.97 ± 0.31
5 | TATGTTCATCATAGCACACATATATAAATTACAACA [CACACA_site3533] | 8.91 ± 0.36
6 | ATTTGGCATAGACACACACACACACGCACGCACATA [CACACA_site6424] | 10.3 ± 0.28
7 | CAAAAATAAACTATAGTACACACTTATTATTATGAA [CACACA_site2702] | 8.8 ± 0.49
8 | TTTTTATGTAGAATTTTTTTATTTTTTCAAAATGGA [CACACA_negctrl_site166] | 7.98 ± 0.44
9 | ATTGTAATCATATGAAGTACTAATATATATTTTAAT [XGTACX_site8350] | 8.69 ± 0.36
10 | ATTTATAAAATTAATAGTACATATATTTATATATAT [XGTACX_site4173] | 8.57 ± 0.4
11 | TATTGCACAAAATAATTTTATTATACTTTATGTTAG [TGCATGCA_negctrl_site574] | 8.52 ± 0.57
12 | TTTTAAATAAAATATTGTACATTAAAATTGTAATAT [XGTACX_site2128] | 8.22 ± 0.38
13 | ATTATAAATATGTATATACACACTTTTAATATTCAT [CACACA_site9367] | 8.96 ± 0.36
14 | TAAGATAAATGATAAAGTACTTTTTTTTTTTAAATA [XGTACX_site2326] | 8.21 ± 0.51
15 | AAGCAAACATATTAATGTACACACACCCACACACAA [XGTACX_site5806] | 9.95 ± 0.46
16 | AATTTTAAAAATATAACACACATATATAAAATATAT [CACACA_site3610] | 8.74 ± 0.42
17 | AATGAAGAAAAAAAAAGTACATTATTTTTAAAACTT [XGTACX_site563] | 8.54 ± 0.38
18 | AATTGTCAGAGAATATGTACTTAAGTATTTATTGTT [XGTACX_site1947] | 8.88 ± 0.42
19 | AATGCATTGATTGCATTCAAAAAAAAAAAAAAAAAA [XGTACX_negctrl_site597] | 8.29 ± 0.45
20 | AATCATAAAGAACATATAATATATATATATATATAT [CACACA_negctrl_site316] | 9.31 ± 0.43
21 | AATAAGATATCTACAACACACATTTAATTTTTTTTT [CACACA_site1641] | 8.71 ± 0.51
22 | TAAATAAAAAAACACACACACATATATATATATATA [CACACA_site2269] | 10.2 ± 0.36
23 | ATAAAAAAATAAAACACACACATATATATTATATAT [CACACA_site2810] | 9.31 ± 0.28
24 | AATATATGCTTTCGTTATATTAAATTCAATTTAATG [GTGCAC_negctrl_site76] | 8.53 ± 0.4
